Data on 25 compounds can be found in PubChem BioAssay AID463173 (ICCB-Longwood Screening Facility, Harvard Medical School, 2010).

Out of some 52,000 compounds screened, about 4,300 (8.3%) were called active. Cut-off read from the data, not from the text of the source: active = survival mostly below about 52% (no sharp cut-off); inactive = mostly above about 56%. Some of the results follow.

In this assay the test system is DeltatarO mutant. Kind of assay: S. aureus survival, RN4220 and DeltatarO strains – OD600, teichoic acid synthesis inhibitors, primary screen (AID 463173). Conditions: S. aureus RN4220 wild type/DeltatarO growth, OD600, 18 h, active compounds read low, screened at 18.75 µg/mL (by protocol).
Consider `Cc1oc2ncn(C)c(=O)c2c1C(=O)NCCCN(Cc1ccccc1)C(C)C`, for which the survival is inactive: 72%.
For `Cc1ccc(NC(=O)Cn2nnc(C(=O)NCCc3ccccc3)c2N)cc1C`, the survival is active: 46%.
In the case of `CC(C)Oc1ccc(CNC(=O)C2CCN(c3nc4ccccc4n(C)c3=O)CC2)cc1`, the survival was inactive: 84%.
Regarding `CCc1ccc(C2NC(=O)c3[nH]nc(-c4cccc(OC)c4)c32)cc1` (stereo not given), the survival was inactive: 54%.
For the compound `Cc1ccc(S(=O)(=O)C(=O)Nc2cccc3nsnc23)cc1`, the survival was inactive: 94%.
In the case of `O=C(c1ccccc1)N1CCN(C(=O)c2cc3ccccc3oc2=O)CC1` it was inactive: 87%; in that of `CCOc1ccc(C(=O)c2cn(Cc3ccc(F)cc3)c3ccc(F)cc3c2=O)cc1`, inactive: 57%; in that of `Cc1ccc(C)c(CNC(=O)c2cnc3sc(N4CCCC4)nn3c2=O)c1`, inactive: 78%.
With `Cc1cccc(-n2ncc3c(N4CCCCCC4)ncnc32)c1` the figure was inactive: 92%; with `Cc1ccc(CN(Cc2ccco2)C(=O)c2oc3ccc(C)cc3c2C)cc1`, inactive: 54%.
In the case of `CSc1ccc(C2c3c(oc4ccccc4c3=O)C(=O)N2CCCN2CCOCC2)cc1` (stereo not given) it was inactive: 73%; in that of `CC(C)(C)C(=O)OC1=CN(Cc2ccccc2)S(=O)(=O)c2ccccc21`, inactive: 69%; in that of `CCCNC(=O)CN1CCN(c2ncc(NC(=O)c3ccc(Cl)cc3)cc2C(=O)O)CC1`, inactive: 103%.
For the compound `CCCOc1ccccc1C1Oc2nc(SC)nnc2-c2ccccc2N1C(C)=O` (stereo not given), the survival is inactive: 82%.
Regarding `COCCNC(=O)Cn1ncc2c(C)n(Cc3ccc(C)cc3)c(C)c2c1=O`, the survival was inactive: 75%.
`COc1cccc(NC(=O)c2c(C(=O)Nc3ccccc3)sc3nc(C)cc(=O)n23)c1`: the survival was inactive: 62%.
With `CCOc1ccc(/C=C/C(=O)Nc2sc3c(c2C(=O)OC)CCC3)cc1` the figure was inactive: 75%; with `CN(C)c1nc(N(C)C)nc(N(C#N)CN2C(=O)c3ccccc3C2=O)n1`, inactive: 91%; with `CCc1ccc(NC(=O)CSc2nc3ncccc3[nH]2)cc1`, inactive: 86%.
Take `O=S(=O)(c1ccccc1)c1nc(-c2ccc(F)cc2)oc1N1CCCCCC1`: the survival was active: 33%.
Turning to `c1ccc(Nc2nc(N3CCCCC3)nc(N3CCCCC3)n2)cc1`, the survival is inactive: 106%.
With `COc1ccccc1NC(=O)C1=C(C)Nc2nc(SCc3ccccc3Cl)nn2C1c1ccncc1` (stereo not given) the figure was inactive: 59%; with `CC(=O)c1c(C)oc2ccc(N(C(=O)c3ccncc3)S(=O)(=O)c3ccc(C)cc3C)cc12`, inactive: 68%.
Consider `CCN(CC)S(=O)(=O)c1ccc(C(=O)NCCSc2c(-c3ccc(OC)cc3)[nH]c3ccccc23)cc1`, for which the survival is inactive: 104%.
With `CC(=O)Nc1cccc(NC(=O)CSc2cn(CC(=O)N3CCCCCC3)c3ccccc23)c1` the figure was inactive: 88%.
